# The full ranking holds about 2,900 compounds; the median of “NF-kB SEAP reporter activity, fold change vs agonist alone” is about 0.99, and the highest 2% start at about 2.6. The list shows a part of the results.
# Tests used:
# [1] = system: RAW-Dual; experiment: NF-kB SEAP reporter activity, fold change vs agonist alone; higher = enhanced NF-kB activity; details: library stock concentration (final ~1000-fold dilution): 10 mM
# Method in brief: (§1)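 Reporter activity is given as fold change relative to agonist-alone wells. To measure it, 50 nL of library stock was pin-tooled onto RAW-Dual macrophages (50,000 cells/well, DMEM, 384-well plates), a PRR agonist followed 1 h later, and cells stayed at 37 °C, 5% CO2. Twenty hours on, supernatant was assayed for IRF (QuantiLuc luminescence) and NF-κB (QuantiBlue, 620 nm absorbance), and wells under 70% of agonist-control IncuCyte confluency in both mask sets were marked cytotoxic.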
# [2] = system: RAW-Dual; experiment: NF-kB SEAP reporter activity, fold change vs agonist alone; cytotoxicity flag (confluency mask): not cytotoxic; higher = enhanced NF-kB activity
# Method in brief: as §1
# [3] = system: RAW-Dual; experiment: NF-kB SEAP reporter activity, fold change vs agonist alone; cytotoxicity flag (confluency mask): cytotoxic (confluency <70% of control); higher = enhanced NF-kB activity
# Method in brief: as §1
# [4] = cytotoxicity flag (confluency mask): not cytotoxic, agonist: Imiquimod (TLR7) […]
# [5] = cytotoxicity flag (confluency mask): not cytotoxic, agonist: MPLA (TLR4) […]
# [6] = agonist: ODN 1826 (TLR9) 0.5 ug/mL
# [7] = agonist: Pam2CSK4 (TLR2/6) 0.1 ug/mL
# [8] = agonist: Pam3CSK4 (TLR2/1) 0.1 ug/mL
# [9] = cytotoxicity flag (confluency mask): cytotoxic (confluency <70% of control), agonist: Imiquimod (TLR7) […]
# [10] = cytotoxicity flag (confluency mask): cytotoxic (confluency <70% of control), agonist: MPLA (TLR4) […]
smiles,measurement,setting,value
Cc1cc(C)c(-c2csc(NC(=O)c3ccccc3)n2)c(C)c1,NF-kB SEAP reporter activity,[1]; [4],0.838
same,NF-kB SEAP reporter activity,[1]; [5],0.953
Cc1cc(C)c(-c2csc(NC(=O)c3ccccc3)n2)c(C)c1 (library stock concentration (final ~1000-fold dilution): 10 mM),NF-kB SEAP reporter activity,[2]; agonist: LPS (TLR4) 0.1 ug/mL,1.87
same,NF-kB SEAP reporter activity,[2]; [6],0.534
same,NF-kB SEAP reporter activity,[2]; [7],0.742
same,NF-kB SEAP reporter activity,[2]; [8],0.819
CC(C)NCC(C(=O)N1CCN(c2ncnc3c2C(C)CC3O)CC1)c1ccc(Cl)cc1 (stereo unspecified) (library stock concentration (final ~1000-fold dilution): 10 mM),NF-kB SEAP reporter activity,[2]; agonist: LPS (TLR4) 0.1 ug/mL,0.942
same,NF-kB SEAP reporter activity,[2]; [6],0.996
same,NF-kB SEAP reporter activity,[2]; [7],1.15
same,NF-kB SEAP reporter activity,[2]; [8],1.11
CC(C)NCC(C(=O)N1CCN(c2ncnc3c2C(C)CC3O)CC1)c1ccc(Cl)cc1 (stereo unspecified),NF-kB SEAP reporter activity,[1]; [4],1.27
same,NF-kB SEAP reporter activity,[1]; [5],1.13
Cc1nnsc1C(=O)Nc1ccc(-n2nc(C(F)(F)F)cc2C(F)(F)F)cc1 (library stock concentration (final ~1000-fold dilution): 10 mM),NF-kB SEAP reporter activity,[3]; agonist: LPS (TLR4) 0.1 ug/mL,0.794
same,NF-kB SEAP reporter activity,[3]; [6],0.63
same,NF-kB SEAP reporter activity,[3]; [7],0.374
same,NF-kB SEAP reporter activity,[3]; [8],0.307
Cc1nnsc1C(=O)Nc1ccc(-n2nc(C(F)(F)F)cc2C(F)(F)F)cc1,NF-kB SEAP reporter activity,[1]; [9],0.853
same,NF-kB SEAP reporter activity,[1]; [10],1
C=CC(=O)Nc1cccc(Nc2nc(Nc3ccc(Oc4ccnc(C(=O)NC)c4)cc3)ncc2F)c1 (library stock concentration (final ~1000-fold dilution): 10 mM),NF-kB SEAP reporter activity,[2]; agonist: LPS (TLR4) 0.1 ug/mL,1.14
same,NF-kB SEAP reporter activity,[2]; [6],2.1
same,NF-kB SEAP reporter activity,[2]; [7],0.379
same,NF-kB SEAP reporter activity,[2]; [8],0.886
C=CC(=O)Nc1cccc(Nc2nc(Nc3ccc(Oc4ccnc(C(=O)NC)c4)cc3)ncc2F)c1,NF-kB SEAP reporter activity,[1]; [4],1.36
same,NF-kB SEAP reporter activity,[1]; [5],2.27
CCCOC(=O)c1cc(O)c(O)c(O)c1 (library stock concentration (final ~1000-fold dilution): 10 mM),NF-kB SEAP reporter activity,[2]; agonist: LPS (TLR4) 0.1 ug/mL,1.37
same,NF-kB SEAP reporter activity,[2]; [6],0.717
same,NF-kB SEAP reporter activity,[2]; [7],0.872
same,NF-kB SEAP reporter activity,[2]; [8],0.892
CCCOC(=O)c1cc(O)c(O)c(O)c1,NF-kB SEAP reporter activity,[1]; [5],1.32
CC(C)c1cc(-c2n[nH]c(=O)n2-c2ccc3c(ccn3C)c2)c(O)cc1O (library stock concentration (final ~1000-fold dilution): 10 mM),NF-kB SEAP reporter activity,[3]; agonist: LPS (TLR4) 0.1 ug/mL,0.349
same,NF-kB SEAP reporter activity,[3]; [6],0.25
same,NF-kB SEAP reporter activity,[3]; [7],0.0897
same,NF-kB SEAP reporter activity,[3]; [8],0.148
CC(C)c1cc(-c2n[nH]c(=O)n2-c2ccc3c(ccn3C)c2)c(O)cc1O,NF-kB SEAP reporter activity,[1]; [9],0.313
same,NF-kB SEAP reporter activity,[1]; [10],0.713
COC1CCC(N2C(=O)CNc3ncc(-c4ccc(C(C)(C)O)nc4)nc32)CC1 (stereo unspecified) (library stock concentration (final ~1000-fold dilution): 10 mM),NF-kB SEAP reporter activity,[2]; agonist: LPS (TLR4) 0.1 ug/mL,0.463
same,NF-kB SEAP reporter activity,[2]; [6],0.349
same,NF-kB SEAP reporter activity,[2]; [7],0.719
same,NF-kB SEAP reporter activity,[2]; [8],0.458
COC1CCC(N2C(=O)CNc3ncc(-c4ccc(C(C)(C)O)nc4)nc32)CC1 (stereo unspecified),NF-kB SEAP reporter activity,[1]; [4],0.711
same,NF-kB SEAP reporter activity,[1]; [5],0.53

# — the supplement of paper PMC10037445
